The text below walks through data of patent US20240317847A1 (Bayer, published 2024).

Changes are numbered by the printed parent chain. Numbers in names are those of the source.

For assay [1], the target named is T1, human IL-11 (human, UniProt P20809 22-199).
T1 sequence: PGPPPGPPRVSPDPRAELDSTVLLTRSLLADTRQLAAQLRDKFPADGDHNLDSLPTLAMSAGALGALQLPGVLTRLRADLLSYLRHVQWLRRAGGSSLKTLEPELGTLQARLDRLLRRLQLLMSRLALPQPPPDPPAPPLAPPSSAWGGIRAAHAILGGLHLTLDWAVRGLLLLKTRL
The experiment in a line: cell-based or functional assay.

The target in assay [2] is T2, murine IL-11 (mouse, UniProt P47873 22-199).
T2 sequence: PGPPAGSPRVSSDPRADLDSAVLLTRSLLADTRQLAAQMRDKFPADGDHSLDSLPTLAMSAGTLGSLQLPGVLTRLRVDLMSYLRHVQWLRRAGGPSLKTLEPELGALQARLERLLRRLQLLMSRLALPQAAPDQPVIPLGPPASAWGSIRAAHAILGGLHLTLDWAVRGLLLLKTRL
Kind of assay: cell-based or functional assay.

In assay [3] the target is T3, cynomolgus IL-11 (cynomolgus, UniProt P20808 22-199).
T3 sequence: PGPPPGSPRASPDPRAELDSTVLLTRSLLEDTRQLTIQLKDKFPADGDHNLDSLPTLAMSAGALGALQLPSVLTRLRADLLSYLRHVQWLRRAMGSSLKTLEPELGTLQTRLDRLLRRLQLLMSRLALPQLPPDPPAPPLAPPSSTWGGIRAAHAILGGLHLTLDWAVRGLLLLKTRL
The experiment in a line: cell-based or functional assay.

The target in assay [4] is T4, rat IL-11 (rat, UniProt Q99MF5 22-199).
T4 sequence: T2 sequence with S50N, L84F, G94A, V137A, I138V
Kind of assay: cell-based or functional assay.

The target of assay [5] is T1, human IL-11. Kind of assay: SPR (Biacore), 37 C, antibody captured via anti-Fc, IL-11 as analyte. Here is the method: (§1) To assess the binding kinetics and affinity of anti-IL-11 bispecific antibodies as well as their species cross-reactivity profile, binding assays were conducted using surface plasmon resonance (SPR). […] Antibodies were captured either via anti-human Fc IgGs (“Human antibody capture kit”, Order No. BR100839, Cytiva) or via anti-mouse Fc IgGs (“Mouse antibody capture kit, Order No. BR100383, Cytiva) covalently amine coupled to a Series S CM5 sensor chip (Cytiva) depending on the isotype. The amine coupling was carried out according to the manufacturer's instructions using 1-ethyl-3-(3-dimethylaminopropyl) carbodiimide hydrochloride (EDC), N-hydroxysuccinimide (NHS) and ethanolamine HCl, pH 8.5 (“Amine Coupling Kit” BR-1000-50, Cytiva.). Human, mouse, cynomolgus or rat IL-11 was used as analyte at several dilutions within the concentration range from 0.05-200 nM. For binding assays with only one concentration 200 nM IL-11 was used. The sensor surface was regenerated with glycine pH 1.7 after each antigen injection. Obtained sensorgrams were double referenced (subtraction of reference flow cell signal and buffer injection) and were fitted to a 1:1 Langmuir binding model to derive kinetic data using the Biacore T200 Evaluation software or the Biacore Insight software.
(§2) If no value is reported, there was either no binding or very low binding and multiphasic binding behavior.
(In general: SPR reads the build-up and loss of mass on a sensor chip optically.)

Assay [6] has as its target T2, murine IL-11. The assay is described as above. Here is the method: as §1, §2
Assay [7] addresses T3, cynomolgus IL-11. Described as above. Here is the method:
as §1, §2

Assay [8] deals with T4, rat IL-11. The assay is described as above. Here is the method:
as §1, §2

In assay [9] the target is T1, human IL-11. The experiment in a line: Tri-complex ELISA, hIL-11 + mIL-11Ra-Fc + hgp130-Fc, inhibition of complex formation. The method, then: In the Tri-complex ELISA format IL-11 antibodies are tested for their ability to inhibit the formation of a complex consisting of murine or human gp130-Fc fusion protein, with murine or human IL-11, and a murine IL11RA-Fc fusion protein. The assay format was adapted according to FIG. 18 (a, b), depending on whether murine or human IL-11 IgG antibodies were tested.
(§3) IgG converted antibodies were subjected to the experimental assay procedure described in Example 19 and IC50 [M], respectively efficacy (%) were calculated accordingly.
On the technique in general: An ELISA detects its analyte on a solid surface through an enzyme-linked reagent.

The target of assay [10] is T2, murine IL-11. The experiment in a line: Tri-complex ELISA, mIL-11 + mIL-11Ra-Fc + mgp130-Fc, inhibition of complex formation. The method, then:
In a first step, 25 μl of goat anti human IgG (Sigma, #12136), diluted 1:1000 in coating buffer (Candor, #121125) was coated on the plate at 4° C. overnight. Next day, the plate was washed one time with 50 μl PBST and then blocked with 50 μl SmartBlock (Candor, #113125) for one hour at room temperature (RT). […] After three additional washes of the coated and blocked microtiter plate with PBS-T, 25 μl of each mixture were added and the assay plate was incubated for one hour at room temperature. After three additional washes, anti-mouse-gp130 biotinylated antibody (R&D, #BAF468) or anti-human gp130 biotinylated antibody (R&D, #BAF228), both 1:1000 in 10% SmartBlock PBS-T, was added and incubated for 1 hour at RT. After three additional washes, a Streptavidin-Peroxidase conjugate (Sigma, #S5512) 1:1000 in SmartBlock PBS-T was added and incubated for one hour at room temperature. After a final three washes, AmplexRed (Fisher Scientific, A12222), 1/1000 in PBS, 0,003% H₂O₂, was added as substrate and incubated for 15 min at RT in the dark. Then, the fluorescence was measured with a plate reader at 535/595 nm. Signals from dose responses were used to calculate IC50 values using GraphPad Prism software. Efficacy was calculated as [(signal measured at lowest antibody concentration−signal measured at the highest antibody concentration)×100] divided by (signal measured at lowest antibody concentration−signal measured in the absence of antibody at an IL11 concentration of 8.2E-11 [M]).
as §3

The target of assay [11] is T5, human IL-11 (human, UniProt P20809 22-199).
T5 sequence: T1 sequence
The experiment in a line: cell-based or functional assay. This is another data set of the same source.

Assay [12] concerns the target T6, murine IL-11 (mouse, UniProt P47873 22-199).
T6 sequence: T2 sequence
Kind of assay: cell-based or functional assay. The source holds these as a separate data set.

Assay [13] has as its target T5, human IL-11. The experiment in a line: SPR, antibody captured, IL-11 as analyte.
Assay [14] addresses T6, murine IL-11. Kind of assay: SPR, antibody captured, IL-11 as analyte.
The target of assay [15] is T7, cynomolgus IL-11 (cynomolgus, UniProt P20808 22-199).
T7 construct: Invigate, lot #C290621-19; also called cIL11; cynoL-11
T7 sequence: T3 sequence
The experiment in a line: SPR, antibody captured, IL-11 as analyte.

In assay [16] the target is T8, rat IL-11 (rat, UniProt Q99MF5 22-199).
T8 construct: Invigate, e.g. lot #C301019-19; also called rIL11
T8 sequence: T2 sequence with S50N, L84F, G94A, V137A, I138V
Kind of assay: SPR, antibody captured, IL-11 as analyte.

Assay [17] has as its target T9, human IL-11 (Invigate, e.g., lot #C121021-19) (human, UniProt P20809 22-199).
T9 construct: Bought protein; also called hIL-11; hIL11
T9 sequence: T1 sequence
Kind of assay: competition ELISA on biotinylated human IL-11 captured on a streptavidin plate; competitor: murine IgG TPP-18068 at constant 1E-08 M, detected with anti-mouse-POD.

B1: TPP-29680 (antibody, human IgG1, lambda)
heavy: QVQLVESGGGVVQPGRSLRLSCAASGFTFSHYDMHWVRQAPGKGLEWVAVISYHGSVKFYADSVKGRFTISRDNSKNTLYLQMNSLRAEDTAVYYCARTPGFHFDYWGQGTLVTVSSASTKGPSVFPLAPSSKSTSGGTAALGCLVKDYFPEPVTVSWNSGALTSGVHTFPAVLQSSGLYSLSSVVTVPSSSLGTQTYICNVNHKPSNTKVDKKVEPKSCDKTHTCPPCPAPPVAGPSVFLFPPKPKDTLMISRTPEVTCVVVGVSHEDPEVKFNWYVDGVEVHNAKTKPREEQYNSTYRVVSVLTVLHQDWLNGKEYKCKVSNKQLPSPIEKTISKAKGQPREPQVYTLPPSRDELTKNQVSLTCLVKGFYPSDIAVEWESNGQPENNYKTTPPVLDSDGSFFLYSKLTVDKSRWQQGNVFSCSVMHEALHNHYTQKSLSLSPGK
light: QSVLTQPPSASGTPGQRVTISCSGSSSNIGSNYVSWYQQLPGTAPKLLIYYDDLRPSGVPDRFSGSKSGTSASLAISGLRSEDEADYYCSAWDDSLSGVVFGGGTKLTVLGQPKAAPSVTLFPPSSEELQANKATLVCLISDFYPGAVTVAWKADSSPVKAGVETTTPSKQSNNKYAASSYLSLTPEQWKSHRSYSCQVTHEGSTVEKTVAPTECS
notes: hIgG1, Lambda (HS variant)
For orientation: Kd means the equilibrium constant for the complex coming apart. A word on the IC50: it is the concentration needed to halve the response being measured. As for B1, the “Efficacy (%), Stat3 reporter gene assay” value with human IL-11 [1] was 98.4%; with murine IL-11 [2], 96.2%; with cynomolgus IL-11 [3] it was 97.5%; in the assay with rat IL-11 [4] it was 98.5%. The “IC50, Stat3 reporter gene assay” value with human IL-11 [1] came to 1.5 nM; with murine IL-11 [2] it was 0.66 nM; in the assay with cynomolgus IL-11 [3], 0.29 nM; with rat IL-11 [4], 1.1 nM. Further, the Kd is 0.0016 nM with human IL-11 [5], less than 0.001 nM in the assay with murine IL-11 [6], 0.35 nM with cynomolgus IL-11 [7] and 0.009 nM with rat IL-11 [8]. In addition, the “Efficacy (%)” value is 78.8% with human IL-11 [9] and 101% with murine IL-11 [10]. Moreover, the 50% inhibitory concentration (IC50) is 7 nM with human IL-11 [9] and 0.11 nM with murine IL-11 [10].

B2: TPP-16478 (antibody, human IgG1, lambda)
heavy: EVQLLESGGGLVQPGGSLRLSCAASGFTFSSYGMHWVRQAPGKGLEWVSVISYDGSYKYYADSVKGRFTISRDNSKNTLYLQMNSLRAEDTAVYYCAAGVPDYWGQGTLVTVSS[omitted - human IgG1 constant region]
light: QSVLTQPPSASGTPGQRVTISCTGSSSNIGAGYDVHWYQQLPGTAPKLLIYSNNERPSGVPDRFSGSKSGTSASLAISGLRSEDEADYYCAAWDDSLNGPVFGGGTKLTVLGQPKAAPSVTLFPPSSEELQANKATLVCLISDFYPGAVTVAWKADSSPVKAGVETTTPSKQSNNKYAASSYLSLTPEQWKSHRSYSCQVTHEGSTVEKTVAPTECS
notes: hIgG1, Lambda
Take B2: the “RGA Efficacy (%)” value with human IL-11 [11] came out at 50.9%; in the assay with murine IL-11 [12] it was 89%. In addition, the results for the “RGA IC50” value in the assay with human IL-11 [11] and with murine IL-11 [12] were 16 nM and 0.24 nM, respectively. For the same molecule, the Kd was found to be 2.2 nM with human IL-11 [13], 0.62 nM in the assay with murine IL-11 [14], 1.8 nM with cynomolgus IL-11 [15] and 0.33 nM in the assay with rat IL-11 [16].

B3: TPP-29536 (antibody, human IgG1, lambda)
heavy: EVQLLESGGGLVQPGGSLRLSCAASGFTFSSYGMHWVRQAPGKGLEWVAVISYDGSYKYYADSVKGRFTISRDNSKNTLYLQMNSLRAEDTAVYYCAAGVPDYWGQGTLVTVSSASTKGPSVFPLAPSSKSTSGGTAALGCLVKDYFPEPVTVSWNSGALTSGVHTFPAVLQSSGLYSLSSVVTVPSSSLGTQTYICNVNHKPSNTKVDKKVEPKSCDKTHTCPPCPAPPVAGPSVFLFPPKPKDTLMISRTPEVTCVVVGVSHEDPEVKFNWYVDGVEVHNAKTKPREEQYNSTYRVVSVLTVLHQDWLNGKEYKCKVSNKQLPSPIEKTISKAKGQPREPQVYTLPPSRDELTKNQVSLTCLVKGFYPSDIAVEWESNGQPENNYKTTPPVLDSDGSFFLYSKLTVDKSRWQQGNVFSCSVMHEALHNHYTQKSLSLSPGK
light: B2 light with T23S, A31S, G32D, N54E, A91S, D95S, N98S
notes: hIgG-lambda-HS (human IgG1 with Fc-silencing mutations)
As to B3, in [17], the “IC50 (read off the curve)” value was roughly 10 nM.

B4: TPP-29386 (antibody, human IgG1, lambda)
heavy: B2 heavy with S49A
light: B2 light with T23S, A31S, G32D, N54E, A91S, D95S, N98S
notes: hIgG1, Lambda; VL G32D, N54E, A91S, D95S against TPP-27159
Consider B4, for which the results for the “RGA Efficacy (%)” value with human IL-11 [11] and with murine IL-11 [12] were 88.9% and 97.9%, respectively. The “RGA IC50” value amounted to 0.64 nM with human IL-11 [11] and 0.12 nM with murine IL-11 [12]. In addition, the Kd was found to be 0.27 nM with human IL-11 [13], 0.3 nM with murine IL-11 [14], 0.31 nM with cynomolgus IL-11 [15] and 0.15 nM in the assay with rat IL-11 [16].
